Experimental data from publication PMC4592949.
Results are given in words; binding and its absence hold for the method and conditions named. For some assays here: Binding seen in cells or lysates may run through a third protein. Some binding calls cover weakened binding; strength is not graded here. Values belong to the substance of their own block, whether it stands above or below them.

By UniProt entry, the sequences of proteins in these tests, tags left out. Where a name states a change or a piece, a line headed by the entry shows the natural chain unless it says otherwise. Chains listed by the source or under a name are the forms on record and can include a tag or linker. Residues count along the entry.
UniProt O95714: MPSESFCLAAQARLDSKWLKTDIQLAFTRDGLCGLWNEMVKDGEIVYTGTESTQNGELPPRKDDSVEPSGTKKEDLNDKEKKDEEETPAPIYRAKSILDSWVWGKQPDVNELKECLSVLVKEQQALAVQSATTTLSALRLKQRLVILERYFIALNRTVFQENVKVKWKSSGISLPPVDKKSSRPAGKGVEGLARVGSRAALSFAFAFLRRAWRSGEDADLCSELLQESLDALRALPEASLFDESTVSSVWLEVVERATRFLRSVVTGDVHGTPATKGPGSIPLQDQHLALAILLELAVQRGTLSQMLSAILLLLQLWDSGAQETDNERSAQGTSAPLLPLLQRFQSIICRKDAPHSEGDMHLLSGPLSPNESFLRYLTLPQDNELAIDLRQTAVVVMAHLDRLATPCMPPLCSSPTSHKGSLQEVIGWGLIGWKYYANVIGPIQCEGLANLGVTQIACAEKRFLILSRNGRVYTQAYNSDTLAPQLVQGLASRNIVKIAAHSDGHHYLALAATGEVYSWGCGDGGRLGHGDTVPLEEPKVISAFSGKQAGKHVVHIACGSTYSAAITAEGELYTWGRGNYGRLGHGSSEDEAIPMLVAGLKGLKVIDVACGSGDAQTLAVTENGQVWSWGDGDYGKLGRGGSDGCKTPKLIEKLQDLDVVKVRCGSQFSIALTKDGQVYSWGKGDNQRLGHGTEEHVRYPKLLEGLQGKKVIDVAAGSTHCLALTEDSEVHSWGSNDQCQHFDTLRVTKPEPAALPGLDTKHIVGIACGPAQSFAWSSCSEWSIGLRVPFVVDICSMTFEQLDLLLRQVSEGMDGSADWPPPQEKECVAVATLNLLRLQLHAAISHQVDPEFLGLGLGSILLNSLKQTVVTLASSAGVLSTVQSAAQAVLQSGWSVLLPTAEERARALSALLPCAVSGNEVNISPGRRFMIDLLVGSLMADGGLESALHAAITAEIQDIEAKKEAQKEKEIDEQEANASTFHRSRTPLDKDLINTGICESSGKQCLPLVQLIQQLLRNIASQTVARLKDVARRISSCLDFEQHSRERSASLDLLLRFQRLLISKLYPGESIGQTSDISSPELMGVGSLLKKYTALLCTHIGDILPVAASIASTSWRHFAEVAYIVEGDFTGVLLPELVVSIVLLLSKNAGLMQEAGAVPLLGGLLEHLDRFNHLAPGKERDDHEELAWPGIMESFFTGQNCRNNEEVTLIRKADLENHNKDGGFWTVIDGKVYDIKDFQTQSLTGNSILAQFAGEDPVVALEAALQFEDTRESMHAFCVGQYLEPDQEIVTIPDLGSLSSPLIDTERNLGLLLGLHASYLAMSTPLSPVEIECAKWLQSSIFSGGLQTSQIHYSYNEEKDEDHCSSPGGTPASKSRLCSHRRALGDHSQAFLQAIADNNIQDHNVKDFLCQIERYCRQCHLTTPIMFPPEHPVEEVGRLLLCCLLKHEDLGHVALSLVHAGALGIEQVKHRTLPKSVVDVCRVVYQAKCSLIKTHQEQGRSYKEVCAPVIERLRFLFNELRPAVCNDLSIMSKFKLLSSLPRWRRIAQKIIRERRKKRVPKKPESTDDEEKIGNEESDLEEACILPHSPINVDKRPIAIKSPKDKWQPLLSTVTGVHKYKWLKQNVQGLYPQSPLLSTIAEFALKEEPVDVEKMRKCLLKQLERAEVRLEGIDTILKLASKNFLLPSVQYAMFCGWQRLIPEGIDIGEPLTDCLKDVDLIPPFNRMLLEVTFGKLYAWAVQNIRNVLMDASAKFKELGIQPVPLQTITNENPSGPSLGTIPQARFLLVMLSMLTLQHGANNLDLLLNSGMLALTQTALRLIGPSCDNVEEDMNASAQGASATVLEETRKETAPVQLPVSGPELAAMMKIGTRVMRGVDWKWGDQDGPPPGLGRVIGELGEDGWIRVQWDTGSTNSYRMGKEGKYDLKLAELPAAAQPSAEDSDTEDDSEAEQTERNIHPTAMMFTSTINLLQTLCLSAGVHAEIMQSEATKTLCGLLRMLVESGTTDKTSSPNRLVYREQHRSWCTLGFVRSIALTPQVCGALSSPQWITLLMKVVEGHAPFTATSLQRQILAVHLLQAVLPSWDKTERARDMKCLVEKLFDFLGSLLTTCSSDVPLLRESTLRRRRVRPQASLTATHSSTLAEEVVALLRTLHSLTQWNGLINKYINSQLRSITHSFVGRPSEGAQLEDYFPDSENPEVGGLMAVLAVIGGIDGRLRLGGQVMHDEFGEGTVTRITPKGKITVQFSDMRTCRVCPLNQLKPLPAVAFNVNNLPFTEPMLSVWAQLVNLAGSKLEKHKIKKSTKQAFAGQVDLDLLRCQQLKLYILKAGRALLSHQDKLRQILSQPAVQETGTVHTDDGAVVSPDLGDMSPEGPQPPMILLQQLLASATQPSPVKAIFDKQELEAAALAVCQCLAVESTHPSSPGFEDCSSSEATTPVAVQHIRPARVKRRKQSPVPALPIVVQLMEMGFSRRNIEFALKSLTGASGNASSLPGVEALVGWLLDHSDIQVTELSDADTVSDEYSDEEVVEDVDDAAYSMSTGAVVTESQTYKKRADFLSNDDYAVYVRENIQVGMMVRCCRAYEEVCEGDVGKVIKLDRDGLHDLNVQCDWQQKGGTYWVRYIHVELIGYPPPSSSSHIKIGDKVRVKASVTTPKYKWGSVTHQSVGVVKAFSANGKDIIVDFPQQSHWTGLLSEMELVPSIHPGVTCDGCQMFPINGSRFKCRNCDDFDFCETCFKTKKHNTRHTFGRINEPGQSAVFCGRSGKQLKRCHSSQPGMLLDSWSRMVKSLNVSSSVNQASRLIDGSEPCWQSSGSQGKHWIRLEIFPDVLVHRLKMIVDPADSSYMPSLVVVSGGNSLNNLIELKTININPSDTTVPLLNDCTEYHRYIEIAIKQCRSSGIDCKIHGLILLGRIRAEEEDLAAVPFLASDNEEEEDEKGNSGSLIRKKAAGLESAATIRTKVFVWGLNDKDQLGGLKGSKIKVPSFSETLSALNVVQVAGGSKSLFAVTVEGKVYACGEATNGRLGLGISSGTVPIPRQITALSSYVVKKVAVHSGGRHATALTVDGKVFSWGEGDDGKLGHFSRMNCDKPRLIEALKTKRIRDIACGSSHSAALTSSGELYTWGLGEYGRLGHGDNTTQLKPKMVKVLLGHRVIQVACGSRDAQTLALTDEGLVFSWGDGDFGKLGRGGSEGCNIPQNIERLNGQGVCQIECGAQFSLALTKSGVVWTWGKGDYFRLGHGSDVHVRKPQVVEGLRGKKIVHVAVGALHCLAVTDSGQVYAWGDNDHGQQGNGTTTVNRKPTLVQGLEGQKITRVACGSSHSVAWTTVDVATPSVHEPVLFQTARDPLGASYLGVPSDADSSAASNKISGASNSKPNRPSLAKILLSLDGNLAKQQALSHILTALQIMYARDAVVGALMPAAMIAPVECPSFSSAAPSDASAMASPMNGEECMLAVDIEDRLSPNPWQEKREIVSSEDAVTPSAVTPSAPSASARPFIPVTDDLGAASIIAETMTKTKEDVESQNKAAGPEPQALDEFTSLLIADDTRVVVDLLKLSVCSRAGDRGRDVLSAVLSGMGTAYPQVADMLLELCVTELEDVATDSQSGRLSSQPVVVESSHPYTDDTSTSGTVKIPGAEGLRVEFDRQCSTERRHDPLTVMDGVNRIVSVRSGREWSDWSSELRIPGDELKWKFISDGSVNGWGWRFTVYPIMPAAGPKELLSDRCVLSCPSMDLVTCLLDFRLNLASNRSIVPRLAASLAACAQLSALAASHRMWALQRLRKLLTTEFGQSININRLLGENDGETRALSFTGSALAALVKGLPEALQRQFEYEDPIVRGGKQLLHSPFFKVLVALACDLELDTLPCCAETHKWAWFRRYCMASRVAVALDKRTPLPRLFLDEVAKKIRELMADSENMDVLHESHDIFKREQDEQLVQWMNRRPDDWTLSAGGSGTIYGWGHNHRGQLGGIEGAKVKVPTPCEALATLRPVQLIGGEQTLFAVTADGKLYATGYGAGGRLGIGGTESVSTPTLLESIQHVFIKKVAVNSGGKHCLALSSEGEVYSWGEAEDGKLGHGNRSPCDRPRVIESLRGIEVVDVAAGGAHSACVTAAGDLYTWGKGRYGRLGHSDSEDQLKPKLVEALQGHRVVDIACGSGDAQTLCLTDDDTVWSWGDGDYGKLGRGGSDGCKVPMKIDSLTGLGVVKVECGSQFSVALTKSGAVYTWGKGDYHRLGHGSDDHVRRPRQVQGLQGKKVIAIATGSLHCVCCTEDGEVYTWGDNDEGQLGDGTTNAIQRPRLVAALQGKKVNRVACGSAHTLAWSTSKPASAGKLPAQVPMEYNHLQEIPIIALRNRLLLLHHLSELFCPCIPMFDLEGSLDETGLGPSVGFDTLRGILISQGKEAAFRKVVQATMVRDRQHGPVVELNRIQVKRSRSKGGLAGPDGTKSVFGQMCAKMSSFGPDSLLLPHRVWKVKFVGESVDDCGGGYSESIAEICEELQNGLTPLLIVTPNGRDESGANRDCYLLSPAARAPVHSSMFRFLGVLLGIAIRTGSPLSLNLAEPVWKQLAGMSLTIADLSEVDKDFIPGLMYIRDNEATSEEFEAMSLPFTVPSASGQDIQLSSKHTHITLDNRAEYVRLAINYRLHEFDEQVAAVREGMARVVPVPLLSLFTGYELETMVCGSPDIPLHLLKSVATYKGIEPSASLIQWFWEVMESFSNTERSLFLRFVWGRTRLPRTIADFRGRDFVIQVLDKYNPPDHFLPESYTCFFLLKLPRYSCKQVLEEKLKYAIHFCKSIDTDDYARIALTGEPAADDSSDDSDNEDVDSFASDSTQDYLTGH
FLAG-HA-HERC2 Fragment 3 (amino acids 1700-2800): residues 1700-2800 of O95714
FLAG-HA-HERC2 fragment 3-6 (residues 2540-2700): residues 2540-2700 of O95714
UniProt Q13772: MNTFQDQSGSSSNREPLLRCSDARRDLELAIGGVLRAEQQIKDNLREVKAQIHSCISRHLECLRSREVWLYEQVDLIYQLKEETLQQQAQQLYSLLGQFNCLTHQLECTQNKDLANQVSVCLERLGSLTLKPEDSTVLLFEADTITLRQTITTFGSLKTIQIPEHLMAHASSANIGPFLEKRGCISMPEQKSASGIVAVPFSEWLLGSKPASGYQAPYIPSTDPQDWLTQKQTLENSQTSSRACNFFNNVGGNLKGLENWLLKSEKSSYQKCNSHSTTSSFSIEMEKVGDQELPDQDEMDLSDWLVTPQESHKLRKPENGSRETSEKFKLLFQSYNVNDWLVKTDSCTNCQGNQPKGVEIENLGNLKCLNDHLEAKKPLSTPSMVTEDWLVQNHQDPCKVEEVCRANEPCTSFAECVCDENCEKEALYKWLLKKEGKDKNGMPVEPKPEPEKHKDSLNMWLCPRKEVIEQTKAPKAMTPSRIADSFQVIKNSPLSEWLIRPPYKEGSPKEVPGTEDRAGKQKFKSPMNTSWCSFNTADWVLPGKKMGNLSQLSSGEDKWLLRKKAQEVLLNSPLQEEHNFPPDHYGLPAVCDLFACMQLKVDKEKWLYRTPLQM
Myc-tagged NCOA4-N-terminus (NCOA4 1-245): residues 1-245 of Q13772
Myc-tagged NCOA4-C-terminus (NCOA4 235-614): residues 235-614 of Q13772
NCOA4 383-522-GST: residues 383-522 of Q13772
NCOA4 485-509-GST: residues 485-509 of Q13772
Myc-tagged NCOA4β (Q13772, form named): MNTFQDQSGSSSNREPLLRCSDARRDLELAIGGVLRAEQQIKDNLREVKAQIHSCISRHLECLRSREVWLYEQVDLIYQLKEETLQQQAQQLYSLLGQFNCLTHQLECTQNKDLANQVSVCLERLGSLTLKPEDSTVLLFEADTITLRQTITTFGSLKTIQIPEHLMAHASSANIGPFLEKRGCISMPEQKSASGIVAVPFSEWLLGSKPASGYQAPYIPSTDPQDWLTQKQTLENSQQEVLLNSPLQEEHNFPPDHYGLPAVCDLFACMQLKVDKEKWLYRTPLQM
NCOA4 383-522 I489A/W497A-GST (Q13772, form named): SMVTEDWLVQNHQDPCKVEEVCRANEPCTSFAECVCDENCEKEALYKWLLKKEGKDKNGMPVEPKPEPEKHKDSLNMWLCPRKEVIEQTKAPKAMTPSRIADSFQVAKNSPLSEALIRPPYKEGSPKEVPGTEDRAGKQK
NCOA4 383-522-GST with deletion of amino acids 490-499 (Q13772, form named): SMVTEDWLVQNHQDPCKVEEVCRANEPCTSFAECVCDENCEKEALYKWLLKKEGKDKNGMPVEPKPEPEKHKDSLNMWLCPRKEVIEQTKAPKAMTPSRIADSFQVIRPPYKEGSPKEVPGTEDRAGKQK
UniProt P02792: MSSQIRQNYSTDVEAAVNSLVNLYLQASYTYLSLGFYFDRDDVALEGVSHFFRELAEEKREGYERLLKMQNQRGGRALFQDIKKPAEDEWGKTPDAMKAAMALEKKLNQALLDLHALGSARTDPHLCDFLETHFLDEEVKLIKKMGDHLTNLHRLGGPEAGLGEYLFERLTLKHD
UniProt Q8MIP0: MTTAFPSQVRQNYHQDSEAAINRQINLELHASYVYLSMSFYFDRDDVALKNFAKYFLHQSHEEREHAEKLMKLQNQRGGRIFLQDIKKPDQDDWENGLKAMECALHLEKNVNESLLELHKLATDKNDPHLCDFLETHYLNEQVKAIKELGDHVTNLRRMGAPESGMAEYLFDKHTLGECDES

What was measured:
[1] = molecular target: FLAG-HA-HERC2 Fragment 3 (amino acids 1700-2800) (human) (UniProt O95714); assay: condition: only cells treated with DFO (iron chelation) for 9 hr; co-IP; anti-FLAG IP of FLAG-tagged HERC2 F3 from 293T cells treated with DFO for 9 hr; immunoblot for endogenous NCOA4
[2] = molecular target: FLAG-HA-HERC2 Fragment 3 (amino acids 1700-2800) (human) (UniProt O95714); assay: co-IP; anti-FLAG IP of FLAG-HA-HERC2 fragments from 293T extracts, elution with 3× FLAG peptide; immunoblot for endogenous NCOA4
[3] = molecular target: FLAG-HA-HERC2 fragment 3-6 (residues 2540-2700) (human) (UniProt O95714); assay: as above
[4] = molecular target: NCOA4 I489A/W497A-FLAG-HA (CTAP) (human) (UniProt Q13772); assay: co-IP; FLAG affinity purification (anti-FLAG M2 magnetic beads) of NCOA4-FLAG-HA wild type or mutant from HCT116 control or NCOA4-knockout cells; 50 mM Tris-HCl pH 7.5, 150 mM NaCl, 0.5% Nonidet P40, 1 mM DTT; immunoblot
[5] = molecular target: NCOA4-FLAG-HA (CTAP), wild type NCOA4α (human) (UniProt Q13772); assay: co-IP; FLAG affinity purification of stably expressed NCOA4-FLAG-HA from 293T cells treated for 9 hr as indicated (100 μM DFO, 30 μM DFX, 0.05 mg/ml FAC); immunoblot for endogenous HERC2
[6] = molecular target: endogenous NCOA4 (human (endogenous in HCT116 and 293T)) (UniProt Q13772); assay: co-IP; endogenous HERC2 or NCOA4 IP (Protein G agarose with specific antibodies) from 293T cells, untreated or loaded with FAC for 6 hr; immunoblot
[7] = molecular target: NCOA4-FLAG-HA (CTAP), wild type NCOA4α (human) (UniProt Q13772); assay: co-IP; FLAG affinity purification (anti-FLAG M2 magnetic beads) of NCOA4-FLAG-HA wild type or mutant from HCT116 control or NCOA4-knockout cells; 50 mM Tris-HCl pH 7.5, 150 mM NaCl, 0.5% Nonidet P40, 1 mM DTT; immunoblot
[8] = molecular target: NCOA4 383-522-GST (human) (UniProt Q13772); assay: pull-down; NCOA4 383-522-GST on glutathione Sepharose 4B, mixed with 50 μg recombinant FTH1-only or FTL-only complexes; 30 min at 4°C; 150 mM NaCl, 20 mM Tris pH 7.4, 2 mM DTT, 0.5% Nonidet P-40; Coomassie stain; both purified
[9] = molecular target: Myc-tagged NCOA4-N-terminus (NCOA4 1-245) (human) (UniProt Q13772); assay: condition: 2 μg apoferritin per pulldown (immunoblot-based); pull-down; in vitro translated Myc-NCOA4 proteins held on anti-c-Myc agarose, mixed with horse spleen apoferritin (MYC-IP); 30 min at 4°C; wash 150 mM NaCl, 20 mM Tris pH 7.4, 2 mM DTT, 0.5% Nonidet P-40; immunoblot; only the binder purified
[10] = molecular target: Myc-tagged NCOA4β (human) (UniProt Q13772); assay: as above
[11] = molecular target: Myc-tagged NCOA4α (full length) (human) (UniProt Q13772); assay: pull-down; in vitro translated Myc-NCOA4 proteins held on anti-c-Myc agarose, mixed with horse spleen apoferritin (MYC-IP); 30 min at 4°C; wash 150 mM NaCl, 20 mM Tris pH 7.4, 2 mM DTT, 0.5% Nonidet P-40; immunoblot; only the binder purified
[12] = molecular target: Myc-tagged NCOA4-C-terminus (NCOA4 235-614) (human) (UniProt Q13772); assay: as above
[13] = molecular target: NCOA4 485-509-GST (human) (UniProt Q13772); assay: pull-down; NCOA4-GST fragments on glutathione Sepharose 4B, mixed with 50 μg apoferritin from equine spleen; 30 min at 4°C; 150 mM NaCl, 20 mM Tris pH 7.4, 2 mM DTT, 0.5% Nonidet P-40; SDS-PAGE and Coomassie stain; both purified
[14] = molecular target: NCOA4 383-522 I489A/W497A-GST (human) (UniProt Q13772); assay: as above
[15] = molecular target: NCOA4 383-522-GST with deletion of amino acids 490-499 (human) (UniProt Q13772); assay: as above
[16] = molecular target: NCOA4 485-509-GST (human) (UniProt Q13772); assay: pull-down; NCOA4-GST fragments on glutathione Sepharose 4B, mixed with 2 μg apoferritin from equine spleen; 30 min at 4°C; bound ferritin by immunoblot with FTH1 antibody; both purified

- binding [1]: no binding
- binding [2]: binds
- binding [3]: binds
- binding [4]: binds
Substance: endogenous NCOA4 (from UniProt Q13772 1-614)

- binding [5]: binds
- binding [6]: binds
- binding [4]: binds
- binding [7]: binds
Substance: endogenous HERC2 (from UniProt O95714 1-4834)

Substance: recombinant FTL-only ferritin complex (from UniProt P02792 1-175)
- binding [8]: no binding (tested: 50 μg of purified protein per pulldown)

- binding [9]: no binding
- binding [10]: no binding
- binding [11]: binds
- binding [12]: binds
- binding [13]: binds weakly
- binding [16]: binds weakly
Substance: apoferritin purified from horse spleen (containing both FTH1 and FTL) (from UniProt Q8MIP0 1-182; P02791 1-175) (complex)
- binding [14]: no binding (tested: 50 μg apoferritin per pulldown)
- binding [15]: no binding (tested: 50 μg apoferritin per pulldown)
